In US11648310B2, “Combination of anti-FGFR4-antibody and bile acid sequestrant” (Daiichi Sankyo Europe GmbH, priority 2015, dated 2023):

Experiments:
[1] = cynomolgus monkey, in vivo
From the text: FIG. 6: Human IgG in monkey serum. The results shown were obtained for the combination of male and female animals. […] In order to find ort whether any toxic side effects of FGFR4 inhibition are due to elevated bile acid levels, the effect of co-administering agents which interfere with bile acid levels was examined. […] For reducing bile acid levels, the bile acid sequestrant colestyramine (Quantalan™) was used. Ursodeoxycholic acid (Ursofalk™) was used as a second compound for increasing the transport of bile acids out of the liver. Ursodeoxycholic acid is a hydrophilic bile acid that increases bile acid transporter expression and plasma membrane translocation in the liver, (palliative compounds 1 and 2). The study design included four cynomolgus monkeys (two male, two female) per group. The animals were assigned to the following groups [table] Duration and frequency: three administrations at 7-day interval (i.e. day 0, day 7 and day 14). The first day of dosing was designated as day 0. After the last administration, the animals were kept for a treatment-free period of at east 28 days.

FGF19 (Ileum) = assay: Ileum FGF19 RNA expression by quantitative real-time PCR at end of study; type: in vivo, cynomolgus monkey; settings: FGFR4 antibody alone; FIG. 8
From the text: (§1) In order to find ort whether any toxic side effects of FGFR4 inhibition are due to elevated bile acid levels, the effect of co-administering agents which interfere with bile acid levels was examined. […] For reducing bile acid levels, the bile acid sequestrant colestyramine (Quantalan™) was used. Ursodeoxycholic acid (Ursofalk™) was used as a second compound for increasing the transport of bile acids out of the liver. Ursodeoxycholic acid is a hydrophilic bile acid that increases bile acid transporter expression and plasma membrane translocation in the liver, (palliative compounds 1 and 2).
(§2) The study design included four cynomolgus monkeys (two male, two female) per group. The animals were assigned to the following groups
(§3) Duration and frequency: three administrations at 7-day interval (i.e. day 0, day 7 and day 14). The first day of dosing was designated as day 0. […]
(§4) The test animals were examined for clinical signs, liver enzymes, bile acid levels and FGF19. FGF19 serum levels were determined using quantiquine human FGF19 ELISA from RND according to the manufacturer's instructions. RNA expression of cyno liver and ileum samples for Cyp7A1 (liver) and FGF19 (Ileum) were determined using the High-Capacity RNA-to-cDNA Kit (Applied Biosystems/Life Technologies) followed by subsequent quantitative real-time PCR. […]

Cyp7A1 (liver) = assay: Liver Cyp7A1 RNA expression by quantitative real-time PCR at end of study; type: in vivo, cynomolgus monkey; settings: all treatment groups, versus untreated control; FIG. 7
From the text: as §1, §2, §3, §4

cynomolgus monkeys = settings: cynomolgus monkey, in vivo
From the text: as §1, §2, §3, §4

B1: U4-3: human anti-FGFR4 antibody, VH SEQ ID NO: 54, VL SEQ ID NO: 62; test item of the monkey study (antibody, V domains shown)
VH: EVQLLESGGGLVQPGGSLRLSCAASGFTFSDYYMSWIRQAPGKGLEWVSTISGSGGSTYYADSVKGRFTISRDNSKNTLYLQMNSLRAEDTAVYYCARLTAYGHVDSWGQGTLVTVSSASTKGPSVFPLAPSS
VL: QSVLTQPPSASGTPGQRVTISCSGSSSNIGTNTVNWYQQLPGTAPKLLIYRNYQRPSGVPDRFSGSKSGTSASLAISGLRSEDEADYYCAAWDDSLSGPHVVFGGGTKLTVLGQP
modifications: U4-3-VH and U4-9-VH; U4-3-VL
notes: test item of the monkey study
Human IgG levels in serum [1]: equal in all treatment groups
FGF19 expression levels in the ileum at end of study (FGF19 (Ileum)): elevated
Liver Cyp7A gene expression at study end (Cyp7A1 (liver)): elevated
Toxicological parameters (clinical signs, hematology, blood chemistry and histopathology) (cynomolgus monkeys): elevated
Histopathological examination of the liver (cynomolgus monkeys; iv, 100 mg/kg): minimal bile duct hyperplasia
